Our source for the binding signal values is publication PMC5836133.

This is one part of the list. At the low end of the ranking the order means little.

The test system of this test is T1, GST-NbGlk1(82-244).
T1 sequence: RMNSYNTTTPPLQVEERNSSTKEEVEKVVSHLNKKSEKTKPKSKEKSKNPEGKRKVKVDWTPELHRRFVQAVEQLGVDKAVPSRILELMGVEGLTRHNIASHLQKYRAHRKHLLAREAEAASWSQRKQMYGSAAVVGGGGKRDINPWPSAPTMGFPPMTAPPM
The test is described as follows: protein-binding microarray.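 Further: rank-based score ranging −0.5 to +0.5 with E above 0.45 taken as significant binding.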 To be noted: NbGlk1 is a Golden2-like transcription factor of Nicotiana benthamiana; high values mean tight binding; most listed sequences are background and not binding sites; double strand, one strand shown.
On to ACGTAAAA, for which the binding signal is 0.102 E-score. Regarding AAGTACAT, the binding signal was determined as 0.0438 E-score. Take CAAAAGAG: the binding signal is -0.0501 E-score. Consider AAGGTTCG, for which the binding signal came to 0.00773 E-score.

Sequence AGAGGATC had a binding signal of 0.373 E-score.

AAGTCCGT displayed a binding signal of -0.126 E-score. Regarding ACTCTATG, the binding signal was -0.194 E-score. Turning to ACAGAACT, the binding signal was 0.0162 E-score.

Sequence ATGCTACC registered a binding signal of -0.142 E-score. The value for ACCATCGA was -0.0893 E-score. As to ATAAAATG, the binding signal was found to be 0.00793 E-score. The figure for AGGACCCC is -0.349 E-score; for AAGTCCGG it is -0.217 E-score. ATAATATA: the binding signal came out at 0.233 E-score. Sequence ACAAGGGG came in with a binding signal of 0.0357 E-score. CAGACTCG displayed a binding signal of -0.303 E-score.

Sequence ATCAAGGC gave a binding signal of 0.049 E-score. With CACGGTGC, the binding signal was -0.264 E-score. In turn, ACTTGTAA came in with a binding signal of 0.123 E-score.

ACTAAATG showed a binding signal of 0.0206 E-score. The figure for ATTTACCA is 0.13 E-score. The value for AACACTTC was -0.142 E-score; that for ATTGCTTC was 0.16 E-score.

AACACCAA showed a binding signal of -0.15 E-score.

Regarding ACTTAAGT, the binding signal was -0.11 E-score.

As to AGTCACTA, the binding signal is -0.151 E-score.

ACGGCGTC had a binding signal of -0.251 E-score. The sequence ACACTTGG showed a binding signal of -0.0418 E-score. Sequence AAATCGAG gave a binding signal of 0.288 E-score.

ATACGAAG showed a binding signal of 0.108 E-score. AACTCGTA gave a binding signal of -0.0377 E-score. AACCCATC displayed a binding signal of -0.206 E-score.

As to AACTGGTA, the binding signal was -0.0571 E-score. In the case of AGTCTTAG, the binding signal was -0.0359 E-score. In turn, CAAATGTC registered a binding signal of 0.0135 E-score. Sequence AGGTGAAA gave a binding signal of -0.0271 E-score. Regarding AGACCAGG, the binding signal is -0.242 E-score. The sequence AACTTGCC displayed a binding signal of -0.0482 E-score.

As to AGTCGTCA, the binding signal is -0.149 E-score.

On to AACTTCTT, for which the binding signal was 0.0105 E-score. CACGTATC yielded a binding signal of 0.216 E-score.

In turn, ACATGAAT had a binding signal of 0.0735 E-score. Take ACGTTAAC: the binding signal was -0.06 E-score. With CACCTGAG, the binding signal is -0.105 E-score. The figure for ATGTCGAA is 0.0371 E-score.

In the case of ACATCACG, the binding signal was -0.0114 E-score. The value for ACAAATAG was 0.0893 E-score; that for AATGGCGA was -0.0373 E-score; that for AACCATGG was -0.259 E-score. The sequence AATGGGCG came in with a binding signal of -0.228 E-score. The value for AGACGATG was 0.0227 E-score; that for AAGGTGGA was -0.0826 E-score. As to ATAGGCAT, the binding signal is -0.185 E-score. In turn, ACACAATC registered a binding signal of 0.39 E-score. ACGAGCTC returned a binding signal of -0.187 E-score.

In the case of AGCCGAAT, the binding signal amounted to 0.0689 E-score.

AAATACGA gave a binding signal of 0.155 E-score. The figure for ATTGCGCC is 0.237 E-score.

With AAATTAAC, the binding signal was determined as 0.118 E-score. The figure for ATCTTAAG is 0.211 E-score; for AGCATATG it is 0.0411 E-score; for AATGCGCT it is -0.0999 E-score. AGGCATAA came in with a binding signal of -0.12 E-score. Consider AAAGGGCC, for which the binding signal is -0.363 E-score.

AGGATCAT showed a binding signal of 0.104 E-score. On to AATACTAC, for which the binding signal is 0.0303 E-score.

Sequence CAACAATC displayed a binding signal of 0.134 E-score. The sequence AACAAATC displayed a binding signal of 0.302 E-score. In the case of AACGGCTA, the binding signal was -0.0699 E-score.

AAACCAGC yielded a binding signal of 0.0844 E-score.

In the case of ACCCTCAA, the binding signal was -0.0779 E-score. AAGTTATG registered a binding signal of 0.0676 E-score. On to AGTGACTG, for which the binding signal is -0.209 E-score. ATGCGCAG returned a binding signal of -0.11 E-score. The figure for ACGCGGAC is -0.267 E-score; for AACACGCC it is -0.204 E-score; for AGCCCGCT it is -0.343 E-score. CAATGGAG yielded a binding signal of -0.0637 E-score. AGACGTAC: the binding signal was -0.0843 E-score. In turn, AGTCCACA showed a binding signal of -0.312 E-score.

With ATAACAAG, the binding signal worked out at 0.0218 E-score.

The sequence ACCCGCCA returned a binding signal of -0.215 E-score. Sequence AGTTTCCA returned a binding signal of 0.0549 E-score. The figure for CAGCTAAA is -0.0802 E-score; for ACGATCAA it is 0.0272 E-score. The figure for ACAATGGG is -0.0679 E-score.

Sequence AGCAGCGC returned a binding signal of -0.119 E-score. With ACTAGGAT, the binding signal worked out at 0.198 E-score. The value for AGGGGAAA was -0.0311 E-score; that for AACAGTCG was -0.0291 E-score; that for AAAATCCT was 0.433 E-score. CAGCAAAG registered a binding signal of -0.0202 E-score. Sequence ACCCTAGA came in with a binding signal of 0.0318 E-score. The figure for AACGCGCA is 0.0258 E-score.

With ACGGCCGG, the binding signal was -0.0463 E-score. ACAGACGG: the binding signal was -0.0525 E-score. As for CACAATCC, the binding signal came out at 0.366 E-score. Sequence ACAATTGT registered a binding signal of -0.132 E-score. The value for ACCGAGTG was -0.162 E-score; that for AGGAGTCA was -0.217 E-score. The value for AGGGGATA was 0.15 E-score; that for ATTTCATC was 0.269 E-score; that for AGCCCAGA was -0.184 E-score.

Turning to ATAACCCC, the binding signal was -0.175 E-score.

For AAGGCGGC, the binding signal was -0.155 E-score. For the sequence AACTGGCA, the binding signal was -0.106 E-score. With ACGGACGG, the binding signal is -0.112 E-score.

With CAATCTTA, the binding signal came to 0.304 E-score.

With AAGAGTAA, the binding signal was 0.0593 E-score. In turn, ATTTACTC displayed a binding signal of 0.102 E-score.

In the case of AGCTCCCT, the binding signal is -0.203 E-score. In the case of AGGCGCTA, the binding signal is -0.204 E-score. The value for ACCGCAAG was -0.176 E-score; that for AACATACT was -0.0781 E-score; that for CAGCAGCA was -0.0496 E-score. The sequence AAAATCAA gave a binding signal of 0.334 E-score.

The sequence ATCAGCCA showed a binding signal of 0.139 E-score.

Sequence CACTCCCA yielded a binding signal of -0.0737 E-score. Sequence CACTTGCC displayed a binding signal of -0.174 E-score. In turn, ACGCAAGT registered a binding signal of -0.15 E-score. The value for ATCGCTTA was 0.231 E-score; that for ACAAAAGC was 0.0163 E-score; that for CAGCCCGC was -0.144 E-score. ATCTGGAG: the binding signal stood at 0.225 E-score. With AGGATCTC, the binding signal was 0.402 E-score.

ACGCTCTA: the binding signal is -0.0738 E-score. The sequence ATTCCCCA gave a binding signal of 0.256 E-score. The value for ACGGCGTA was -0.0015 E-score; that for AGGATTTC was 0.469 E-score. The figure for ACCTTGGA is -0.132 E-score; for ACTGTTTG it is -0.0519 E-score; for ATCTGCAC it is 0.375 E-score. The figure for AGGTTGCG is -0.113 E-score. As to ACACAGAG, the binding signal is -0.00403 E-score. Turning to ACATGTAT, the binding signal was -0.00156 E-score. Consider ACCAGCCC, for which the binding signal is -0.178 E-score. On to AAGCAGTG, for which the binding signal was -0.276 E-score. The value for CAACAGGC was -0.242 E-score; that for ACTCTACC was -0.0793 E-score; that for AAGCGAAC was -0.203 E-score. The value for ATACTCTG was 0.0845 E-score; that for AGAGAAGC was -0.0895 E-score; that for AGAATTCG was 0.221 E-score.

In turn, ATGTTGTA yielded a binding signal of 0.103 E-score. The figure for ACACCCGG is -0.258 E-score. For the sequence CAAACAGA, the binding signal came out at 0.0141 E-score.

As to ATTGAGGA, the binding signal was found to be 0.0724 E-score. AACGGGCC came in with a binding signal of -0.342 E-score. ATTTCTGC had a binding signal of 0.219 E-score.

Turning to ACAAATAC, the binding signal is 0.118 E-score.

In the case of AATTCACA, the binding signal is 0.0928 E-score. Regarding ACATGCTG, the binding signal was -0.0838 E-score. In turn, ACTGACGC gave a binding signal of -0.153 E-score. ACATGGCG showed a binding signal of -0.0217 E-score. The figure for ACGTTGTG is -0.0555 E-score; for ACCTCAGA it is -0.0911 E-score.

For the sequence ATCGCCCG, the binding signal stood at 0.188 E-score.

Consider ATGCGACG, for which the binding signal is -0.035 E-score.

AGAGTACC came in with a binding signal of -0.251 E-score. CAATAAGC registered a binding signal of -9.89e-05 E-score. Regarding AGGACGCA, the binding signal is -0.00541 E-score. ATGCGTCG: the binding signal was found to be 0.0331 E-score. The figure for AGGCTGTC is -0.22 E-score; for AGCGAACC it is -0.248 E-score. Consider AATTCAGT, for which the binding signal was determined as 0.125 E-score.

The sequence AGGTGCCA yielded a binding signal of -0.235 E-score.

In turn, AAGTTGAT yielded a binding signal of 0.0445 E-score. Turning to CAAATTAG, the binding signal was determined as 0.0381 E-score.

For ATTCAGAG, the binding signal was determined as 0.0587 E-score. ACCTATGC returned a binding signal of -0.21 E-score. Take AGTTGCTA: the binding signal was -0.141 E-score. The figure for AGGGTCTG is -0.203 E-score.
